From article PMC12807484
These are yes or no findings as the source states them, for the method shown. Binding seen in cells or lysates may run through a third protein. Some results given as binding are weak or reduced against the parent protein; the word gives no strength. Sequences can lack the tags named with a protein.

Chains of the proteins cited; added tags and fusions are not shown. Residues count along the entry.
UniProt Q5HYA8, residues 37-995: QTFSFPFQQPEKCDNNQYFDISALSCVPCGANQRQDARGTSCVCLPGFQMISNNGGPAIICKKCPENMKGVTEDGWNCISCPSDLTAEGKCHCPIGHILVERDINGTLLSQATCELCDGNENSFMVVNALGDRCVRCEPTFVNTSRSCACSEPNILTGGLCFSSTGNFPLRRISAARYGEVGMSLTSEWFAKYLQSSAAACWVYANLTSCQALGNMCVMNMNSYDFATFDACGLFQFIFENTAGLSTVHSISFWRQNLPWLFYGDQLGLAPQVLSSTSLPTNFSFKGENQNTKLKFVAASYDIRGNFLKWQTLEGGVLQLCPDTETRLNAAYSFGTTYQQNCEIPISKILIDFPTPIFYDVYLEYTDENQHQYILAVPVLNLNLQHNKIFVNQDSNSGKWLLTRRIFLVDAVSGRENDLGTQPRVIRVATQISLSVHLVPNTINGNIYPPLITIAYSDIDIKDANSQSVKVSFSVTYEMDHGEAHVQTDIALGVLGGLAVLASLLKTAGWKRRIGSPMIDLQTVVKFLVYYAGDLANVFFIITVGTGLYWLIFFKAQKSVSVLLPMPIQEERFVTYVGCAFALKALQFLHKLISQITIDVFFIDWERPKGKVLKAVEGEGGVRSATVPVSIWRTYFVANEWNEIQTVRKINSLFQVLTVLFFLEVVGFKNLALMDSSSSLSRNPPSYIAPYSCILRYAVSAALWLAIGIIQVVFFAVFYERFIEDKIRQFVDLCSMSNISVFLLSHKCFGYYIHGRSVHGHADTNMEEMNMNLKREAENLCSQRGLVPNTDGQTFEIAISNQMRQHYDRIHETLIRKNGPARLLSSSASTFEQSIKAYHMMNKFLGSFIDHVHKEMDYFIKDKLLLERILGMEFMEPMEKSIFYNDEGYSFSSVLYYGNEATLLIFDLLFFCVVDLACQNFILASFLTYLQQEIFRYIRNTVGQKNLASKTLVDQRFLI

T1: MKS1 (co-IP of Figure 6H) (UniProt Q9NXB0)
T1 sequence: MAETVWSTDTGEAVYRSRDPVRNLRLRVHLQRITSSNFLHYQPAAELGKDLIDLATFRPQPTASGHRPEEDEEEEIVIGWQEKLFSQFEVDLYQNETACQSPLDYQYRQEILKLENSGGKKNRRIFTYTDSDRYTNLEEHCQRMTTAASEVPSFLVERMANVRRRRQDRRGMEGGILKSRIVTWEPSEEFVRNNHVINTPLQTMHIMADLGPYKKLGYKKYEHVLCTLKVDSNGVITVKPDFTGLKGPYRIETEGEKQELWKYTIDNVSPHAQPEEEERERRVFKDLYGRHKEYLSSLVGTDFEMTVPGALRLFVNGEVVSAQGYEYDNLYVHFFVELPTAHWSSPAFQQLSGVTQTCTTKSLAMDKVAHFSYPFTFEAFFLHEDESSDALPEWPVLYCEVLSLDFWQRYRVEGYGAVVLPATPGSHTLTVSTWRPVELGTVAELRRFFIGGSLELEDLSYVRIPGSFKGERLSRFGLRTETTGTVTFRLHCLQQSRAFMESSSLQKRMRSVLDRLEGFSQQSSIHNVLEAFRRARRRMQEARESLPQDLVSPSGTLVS

T2: B9D1 (co-IP of Figure 6H) (UniProt Q9UPM9)
T2 sequence: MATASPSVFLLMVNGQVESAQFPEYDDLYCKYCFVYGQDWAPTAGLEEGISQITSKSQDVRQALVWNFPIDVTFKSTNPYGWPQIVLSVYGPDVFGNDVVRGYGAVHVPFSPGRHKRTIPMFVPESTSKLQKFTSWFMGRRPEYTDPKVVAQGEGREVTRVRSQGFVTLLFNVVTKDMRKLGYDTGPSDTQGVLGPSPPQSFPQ


What was measured:
TMEM67-FLAG = TMEM67-FLAG (UniProt Q5HYA8); assay: co-IP; lysates of co-transfected HEK293T cells; FLAG-TMEM67 as bait; IP buffer 50 mM Tris-HCl pH 7.5, 150 mM NaCl, 1 mM EDTA, 5% glycerol, 0.5% Triton X-100; beads 3 hours at 4°C; Western blot
TMEM67-HA = TMEM67-HA (UniProt Q5HYA8); assay: co-IP; lysates of co-transfected HEK293T cells; bait not told (FLAG M2 or HA beads); IP buffer 50 mM Tris-HCl pH 7.5, 150 mM NaCl, 1 mM EDTA, 5% glycerol, 0.5% Triton X-100; beads 3 hours at 4°C; Western blot
[1] = molecular target: T1, MKS1 (co-IP of Figure 6H); assay: as above
[2] = molecular target: T2, B9D1 (co-IP of Figure 6H); assay: as above

| Binder | binding (TMEM67-FLAG) | binding (TMEM67-HA) | binding [1] | binding [2] |
| --- | --- | --- | --- | --- |
| B9D2-HA (protein, UniProt Q9BPU9 1-175) MAEVHVIGQIIGASGFSESSLFCKWGIHTGAAWKLLSGVREGQTQVDTPQIGDMAYWSHPIDLHFATKGLQGWPRLHFQVWSQDSFGRCQLAGYGFCHVPSSPGTHQLACPTWRPLGSWREQLARAFVGGGPQLLHGDTIYSGADRYRLHTAAGGTVHLEIGLLLRNFDRYGVEC | binds | – | – | – |
| FLAG-B9D2 (WT) (protein, UniProt Q9BPU9 1-175) MAEVHVIGQIIGASGFSESSLFCKWGIHTGAAWKLLSGVREGQTQVDTPQIGDMAYWSHPIDLHFATKGLQGWPRLHFQVWSQDSFGRCQLAGYGFCHVPSSPGTHQLACPTWRPLGSWREQLARAFVGGGPQLLHGDTIYSGADRYRLHTAAGGTVHLEIGLLLRNFDRYGVEC | – | binds | – | binds |
| FLAG-B9D2 p.D47V (protein, UniProt Q9BPU9 1-175) MAEVHVIGQIIGASGFSESSLFCKWGIHTGAAWKLLSGVREGQTQVVTPQIGDMAYWSHPIDLHFATKGLQGWPRLHFQVWSQDSFGRCQLAGYGFCHVPSSPGTHQLACPTWRPLGSWREQLARAFVGGGPQLLHGDTIYSGADRYRLHTAAGGTVHLEIGLLLRNFDRYGVEC | – | binds | binds | binds |

Results, then the binder that gave them:

| binding (TMEM67-FLAG) | binding (TMEM67-HA) | binding [1] | binding [2] | Binder |
| --- | --- | --- | --- | --- |
| binds | – | – | – | MKS1-HA (protein, UniProt Q9NXB0 1-559) MAETVWSTDTGEAVYRSRDPVRNLRLRVHLQRITSSNFLHYQPAAELGKDLIDLATFRPQPTASGHRPEEDEEEEIVIGWQEKLFSQFEVDLYQNETACQSPLDYQYRQEILKLENSGGKKNRRIFTYTDSDRYTNLEEHCQRMTTAASEVPSFLVERMANVRRRRQDRRGMEGGILKSRIVTWEPSEEFVRNNHVINTPLQTMHIMADLGPYKKLGYKKYEHVLCTLKVDSNGVITVKPDFTGLKGPYRIETEGEKQELWKYTIDNVSPHAQPEEEERERRVFKDLYGRHKEYLSSLVGTDFEMTVPGALRLFVNGEVVSAQGYEYDNLYVHFFVELPTAHWSSPAFQQLSGVTQTCTTKSLAMDKVAHFSYPFTFEAFFLHEDESSDALPEWPVLYCEVLSLDFWQRYRVEGYGAVVLPATPGSHTLTVSTWRPVELGTVAELRRFFIGGSLELEDLSYVRIPGSFKGERLSRFGLRTETTGTVTFRLHCLQQSRAFMESSSLQKRMRSVLDRLEGFSQQSSIHNVLEAFRRARRRMQEARESLPQDLVSPSGTLVS |
| – | binds | no binding | binds | FLAG-B9D2 p.S101R (protein, UniProt Q9BPU9 1-175) MAEVHVIGQIIGASGFSESSLFCKWGIHTGAAWKLLSGVREGQTQVDTPQIGDMAYWSHPIDLHFATKGLQGWPRLHFQVWSQDSFGRCQLAGYGFCHVPRSPGTHQLACPTWRPLGSWREQLARAFVGGGPQLLHGDTIYSGADRYRLHTAAGGTVHLEIGLLLRNFDRYGVEC |
| – | binds | binds | binds | FLAG-B9D2 p.R75W (protein, UniProt Q9BPU9 1-175) MAEVHVIGQIIGASGFSESSLFCKWGIHTGAAWKLLSGVREGQTQVDTPQIGDMAYWSHPIDLHFATKGLQGWPWLHFQVWSQDSFGRCQLAGYGFCHVPSSPGTHQLACPTWRPLGSWREQLARAFVGGGPQLLHGDTIYSGADRYRLHTAAGGTVHLEIGLLLRNFDRYGVEC |
